# Assay results reported in the RNAGym collection of RNA variant scans (doi:10.1073/pnas.2313332121).
# Variants at the background level are over-represented here.
# B1: TPR 5TU (parent)
# chain: GGAUCUUCUCGAUCUAACAAAAAAGACAAAUCUGCCACAAAGCUUGAGAGCAUCUUCGGAUGCAGAGGCGGCAGCCUUCGGUGGCGCGAUAGCGCCAACGUUCUCAACUAUGACACGCAAAACGCGUGCUCCGUUGAAUGGAGUUUAUCAUG
# Variants of: B1
# Experiment: polymerase ribozyme fitness, log enrichment relative to wild type (log ratio); higher = more active; in vitro selection for triplet polymerase activity
# In short: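 Input and output libraries were sequenced on Illumina after a single in vitro selection round, run in triplicate on PCR-built, transcribed mutant libraries of each subunit of a heterodimeric triplet polymerase ribozyme. Selection annealed libraries to a biotinylated primer, the partner subunit and triplets, incubated them frozen at −7 °C, then gel-excised extended constructs for streptavidin-bead capture and RT-PCR. Genotypes with ≥10 input reads and ≥1 read per output were kept. Fitness is the logarithm, taken in base 2, of genotype enrichment divided by wild-type enrichment, using inverse-variance-weighted replicate averages.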
row,Variant,polymerase ribozyme fitness (log ratio)
1,G68A G81C G84A A150G,≤ -4.2
2,G68C C85G C116A U134G,≤ -4.2
3,A73G G88C,≤ -4.2
4,G68A G94C,-4.03
5,G71U C72G C87U A107U,≤ -4.2
6,A73G G143A,-0.82
7,G68A G84U C131G G143U,≤ -4.2
8,G68U G88A,≤ -4.2
9,A73G C79U A91U G94A G128U,≤ -4.2
10,G71C,-2.66
11,G71U,-1.93
12,G71A,-2.47
13,G74A A89U C103G A138C,≤ -4.2
14,G71A C79U G86C A97G U101G A110U G133A,≤ -4.2
15,G68U C131A,≤ -4.2
16,G74A U77A C87G,≤ -4.2
17,G71U C76U G84C G92U A98G G117A A122U U146A,≤ -4.2
18,C72G C87A A91G A106U A110C C116U A142C,≤ -4.2
19,G68U C87A,≤ -4.2
20,G68A G86C U101C,≤ -4.2
21,A73C C93A C99U C118U,≤ -4.2

row,Variant,polymerase ribozyme fitness (log ratio)
1,A73U C75G C85G A150U,≤ -4.2
2,A73C C85U A138U,≤ -4.2
3,G74A U78G C103G A106G A110G C131U C149A,≤ -4.2
4,G68U C95U U102C C123G,≤ -4.2
5,C72G C105U,-3.5
6,A73U C76U C99U C105G G140A,≤ -4.2
7,A73G G80C C116U G136A G141U U151A,≤ -4.2
8,C72A A73C,≤ -4.2
9,C69U C85U,-1.39
10,A73U C93U C108U,≤ -4.2
11,C72G U90C,≤ -4.2
12,A73U C76A G84A G92U G152C,≤ -4.2
13,G68A U130C,-3.95
14,C69U C93U U104G C125G G128A,≤ -4.2
15,G68C G136U A142G,≤ -4.2
16,G74A C87A A119G,≤ -4.2
17,G68C C87U,≤ -4.2
18,C69G U77A A121G,≤ -4.2
19,A73U C96U G112A,≤ -4.2
20,A73G G92A C99G G141U,≤ -4.2
21,G70C C99U G152A,≤ -4.2

row,Variant,polymerase ribozyme fitness (log ratio)
1,A73G U77A U82A U102A,≤ -4.2
2,G68C C93U A113U,≤ -4.2
3,G74C C79U G88U U109A A119G G140C,≤ -4.2
4,C69U C85G C149U,-2.74
5,A73G A142G,-1.38
6,C69U C96A,-1.12
7,C72G G83A G100A,≤ -4.2
8,A73G G92A C99U A107U C114G,≤ -4.2
9,G70C G94C,-3.44
10,C72A C125U,≤ -4.2
11,G68U A89G C99A U102A,≤ -4.2
12,G71C C129A,≤ -4.2
13,G68A G133U,≤ -4.2
14,A73C C85A,≤ -4.2
15,A73G G92A C105A G133A,≤ -4.2
16,G68C G81U C96U U109C,≤ -4.2
17,A73U U77A G92A G112A,≤ -4.2
18,A73G G92C,-0.498
19,A73C G80A G86A C87A,≤ -4.2
20,G68A G88A U145C,≤ -4.2
21,G70A G80C C116U,≤ -4.2

row,Variant,polymerase ribozyme fitness (log ratio)
1,A73C C95A C99G A107U A115G,≤ -4.2
2,G68C C93A,≤ -4.2
3,C69U G80A G94A A97U C149G,≤ -4.2
4,G70U C131U A137G,-4.05
5,A73G U90G,≤ -4.2
6,G71A U77C A106U U139A,≤ -4.2
7,G70A C99U U134G G140C G143C,≤ -4.2
8,C72U C79U G83C C87U C95U A98G A107U G141C U145A A150G,≤ -4.2
9,G68A G133U A138U A147U,≤ -4.2
10,G74A A115C,-3.73
11,C72U U104G A106G U144A,-4.01
12,G74A G92C,-2.84
13,C72U U90C A122G G136A C149G,≤ -4.2
14,C72A C85A C103G G141C,≤ -4.2
15,G71U G88U C131G A147C,≤ -4.2
16,G71A C79U,≤ -4.2
17,G71A C76U C85A,≤ -4.2
18,G74A G80U C93A C125A,≤ -4.2
19,G70A C96U C103G U109G C132A,≤ -4.2
20,G70A C96G C99U U127C,≤ -4.2
21,G74A G88C C116G,≤ -4.2
